Source: PubChem BioAssay AID686979 (National Center for Advancing Translational Sciences (NCATS), 2013)
Several values for one entry are separate records, joined by “and”; a condition that tells them apart may be missing. Identical values can stand only once. In all, about 420,000 compounds went through this assay and about 50,000 (12%) were called active. Inconclusive means that the source gave no clear call. Such entries were picked first, then a sample of the others. Calls follow the shape of the dose curve; as a rule, active = well fitted inhibition curve with a large enough effect; inconclusive = small, poorly fitted or top-dose-only effect; inactive = flat fitted curve, though single readings scatter. Potencies of inconclusive entries are doubtful fits and often do not repeat.
% is scaled to controls: 0 for no effect and ±100 for the full control effect; potency is read from the fitted curve at half-maximal effect; tags tell the direction and shape of the fitted curve.

Assay: qHTS for Inhibitors of human tyrosyl-DNA phosphodiesterase 1 (TDP1): qHTS in cells in presence of CPT; also: nearly all actives have a fitted effect of over 55% in size
Settings: chicken DT40 Tdp1-/-;hTDP1 cells + 20 nM CPT, ATP luminescence, 48 h; activity change, negative = growth inhibition: at 46.2 µM (top of the series) unless noted
In short: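 Chicken DT40 Tdp1-/- cells complemented with human TDP1, 400 cells/well, exposed to compounds plus 20 nM camptothecin for at least 48 h at 37 C; viability read as ATP content by CellTiter-Glo luminescence.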
In the case of O=C(CNC(=O)C1CCCCC1)Nc1cc(Cl)ccc1Cl, the “activity change, negative = growth inhibition” value is reported as inactive: -5.98%. For COc1ccc(Nc2c(-c3ccc(F)cc3)nc3nc(C)cc(C)n23)cc1, the Potency was active: 10.3 µM. In the case of COc1ccccc1NC(=O)CN1CCN(c2ccccc2F)CC1, the Potency is reported as active: 20.6 µM. In the case of NNC(=O)CSc1cccc2cccnc12, the “activity change, negative = growth inhibition” value is reported as inactive: 4.48%. For COc1ccc(NC(=O)CSc2nc(-c3ccccc3)[nH]c2-c2ccccc2)cc1OC, the Potency was active: 14.6 µM. For Cn1cccc1C1CCCN1CC(=O)Nc1ccc(C(N)=O)cc1 (centres undefined), the “activity change, negative = growth inhibition” value was inactive: -10%. In the case of CCN(CC)c1ccc(NC(=O)CN2CCN(S(=O)(=O)c3cc(Cl)ccc3OC)CC2)cc1, the Potency is reported as inconclusive: 32.6 µM [inhibitor, partial curve] and inconclusive: 11.6 µM [inhibitor, single point]. For CN(C(=O)C1CCN(c2ncnc3c2nc2n3CCCCC2)CC1)c1ccccc1F, the Potency was inconclusive: 18.4 µM [inhibitor, single point]. With CC(C)N=C(Nc1cccnc1)c1ccccc1 the “activity change, negative = growth inhibition” value was inactive: 19.2%. In the case of COc1ccc(Cl)cc1NC(=O)CN1CCC(NC(=O)C2CC2)CC1, the Potency is reported as active: 23.1 µM. In the case of O=C1C(=NO)CCc2ccccc21, the Potency is reported as active: 20.6 µM. For O=C1c2ccccc2C(=O)N1c1cccc2cccnc12, the “activity change, negative = growth inhibition” value was inactive: 1.49%. In the case of COC(=O)c1ccc2nc(-c3ccc(C#N)cc3)c(Cc3ccsc3)n2c1, the Potency is reported as inconclusive: 20.6 µM [inhibitor, single point]. For Nc1cc2c(cc1O)CCCC2, the Potency was inconclusive: 23.1 µM [inhibitor, partial curve]. With COc1cccc(NC(=O)c2sc3ncn(CC(=O)N4CCN(c5ccccn5)CC4)c(=O)c3c2C)c1 the Potency was active: 18.4 µM. For CCN(C(=O)COC(=O)c1ncc(Cl)c(Cl)c1Cl)c1c(N)n(Cc2ccccc2)c(=O)[nH]c1=O, the Potency was inconclusive: 29.1 µM [inhibitor, single point]. For Cc1oc(-c2ccc(C(=O)NCc3ccccc3F)cc2)nc1COc1ccccc1, the Potency was inconclusive: 29.1 µM [inhibitor, single point]. In the case of Cc1cc(C)nc(SCc2ccc(C(=O)N/N=C/c3ccccn3)cc2)n1, the Potency is reported as inconclusive: 23.1 µM [inhibitor, single point]. For CC1CN(S(=O)(=O)c2cccc(C(=O)Nc3ccccc3N3CCOCC3)c2)CC(C)O1 (centres undefined), the Potency was inconclusive: 18.4 µM [inhibitor, partial curve, poor fit]. With Cc1cc(NC(=O)CSc2nc(CC(C)(C)C)nc3c2c(=O)n(C)c(=O)n3C)no1 the Potency was inconclusive: 29.1 µM [inhibitor, single point]. For CCOC(=O)c1ccc2c(c1)nc(SCC(=O)N1CCCCC1)n2CC, the Potency was inconclusive: 29.1 µM [inhibitor, single point]. For CCOC(=O)CSc1nnc2c3ccccc3n(C)c2n1, the Potency was inconclusive: 18.4 µM [inhibitor, single point]. In the case of Cc1noc(C)c1C(=O)Nc1nc(-c2ccc([N+](=O)[O-])cc2)cs1, the Potency is reported as inconclusive: 2.59 µM [inhibitor, full curve]. In the case of COc1ccccc1N1CCN(C(=O)C2CCC(CNS(=O)(=O)c3ccc(NC(C)=O)cc3)CC2)CC1 (centres undefined), the Potency is reported as inconclusive: 10.3 µM [inhibitor, partial curve]. With CC(=O)N1CCc2c(sc(NC(=O)CCS(=O)(=O)c3ccccc3)c2C#N)C1 the Potency was active: 20.6 µM. With CCOc1ccc2oc(C(=O)NCc3nc4ccccc4[nH]3)c(C)c2c1 the Potency was inconclusive: 18.4 µM [inhibitor, partial curve]. For Cn1cc(C(=O)Nc2ccc(C#N)cc2)c2ccccc2c1=O, the Potency was “inactive and inconclusive: 9.2 µM [inhibitor, single point]”. For CC1(C(=O)NS(=O)(=O)c2ccc(Br)cc2)CCN1C(=O)C/C=C/c1ccccc1 (centres undefined), the “activity change, negative = growth inhibition” value was inactive: 2%. In the case of COc1ccc(C2c3ccc4ccccc4c3Oc3ncn(CCO)c(=N)c32)cc1 (centres undefined), the Potency is reported as inconclusive: 23.1 µM [inhibitor, single point]. In the case of COc1ccc(CCn2c(=O)c3cccnc3n(CC(=O)Nc3ccc(C)cc3C)c2=O)cc1OC, the Potency is reported as inconclusive: 13 µM [inhibitor, partial curve]. With Cc1nc(-c2ccc(S(=O)(=O)N(Cc3ccccc3)C(C)C)cc2)co1 the Potency was inconclusive: 18.4 µM [inhibitor, single point]. With Cc1sc2nc(COC(=O)c3ccc(N4CCCC(C)C4)c([N+](=O)[O-])c3)[nH]c(=O)c2c1C (centres undefined) the Potency was inconclusive: 29.1 µM [inhibitor, single point]. For COc1cccc(COC(=O)C2CCN(S(=O)(=O)c3ccc(Cl)cc3)CC2)c1OC, the “activity change, negative = growth inhibition” value was inactive: -13.8%. For COc1ccc2c(-c3ccccc3)cc(SCC(=O)NC3CCS(=O)(=O)C3)nc2c1 (centres undefined), the “activity change, negative = growth inhibition” value was inactive: -23.6%. For CCCCNC(=O)C1(C)CCCCN1C(=O)c1ccc(C#N)cc1 (centres undefined), the “activity change, negative = growth inhibition” value was inactive: 2.77%. In the case of CC(C)OCCCNC(=O)CCCn1c(SCC(N)=O)nc2c(sc3ccccc32)c1=O, the Potency is reported as inconclusive: 8.2 µM [inhibitor, partial curve, poor fit]. In the case of CC12CN(Cc3ccccc3)CC(C)(CN(Cc3ccccc3)C1)C2=NO, the Potency is reported as active: 23.1 µM. For CC1CCc2cc(F)cc3c(O)c(C(=O)NCCN(C)C)c(=O)n1c23 (centres undefined), the Potency was active: 20.6 µM. With CCOc1ccc(CCNC(=O)c2ccc3c(c2)nc2n3CCOC2)cc1OCC the Potency was inconclusive: 29.1 µM [inhibitor, single point]. For O=C(CSc1nc2c([nH]c3ccccc32)c(=O)n1-c1ccc(F)cc1)NCc1ccc(F)cc1, the Potency was inconclusive: 18.4 µM [inhibitor, single point]. With CCOc1ccc(-c2nnc3ccc(SCC(=O)N4CCN(c5ccccc5)CC4)nn23)cc1 the Potency was inconclusive: 16.4 µM [inhibitor, partial curve]. In the case of COc1ccccc1NC(=O)N1CCN(c2cccc(C(F)(F)F)c2)CC1, the Potency is reported as inconclusive: 10.3 µM [inhibitor, partial curve]. For Fc1ccccc1/C=N/Nc1cc(N2CCCCC2)ncn1, the Potency was inconclusive: 29.1 µM [inhibitor, single point]. In the case of CC(C(=O)NC(=O)NC1CCCCC1)N1CCN(C(c2ccccc2)c2ccccc2)CC1 (centres undefined), the Potency is reported as active: 23.1 µM. With C(=C\c1ccccc1)/CN1CCN(C(c2nnnn2C2CCCC2)C2CC2)CC1 (centres undefined) the Potency was active: 18.4 µM. With O=C(COc1ccc(S(=O)(=O)N2CCCC2)cc1)Nc1ccc(F)cc1 the Potency was inconclusive: 32.6 µM [inhibitor, single point]. For Cc1ccc(Cl)cc1NC(=O)C1CCN(C(=O)c2cnn(-c3ccccc3)c2-n2cccc2)CC1, the “activity change, negative = growth inhibition” value was inactive: -29.9%. In the case of COC(=O)[C@]12CCCCC=C1N(Cc1ccc(Cl)cc1Cl)C(=O)[C@H](CC(=O)NCc1cccc3ccccc13)C2, the Potency is reported as inconclusive: 29.1 µM [inhibitor, single point]. In the case of O=C(NC(Cc1ccccc1)C(=O)O)/C(=C\c1ccc(F)cc1)NC(=O)c1ccccc1 (centres undefined), the “activity change, negative = growth inhibition” value is reported as inactive: -15.7%. With COc1ccccc1N1CCN(C(=O)c2ccc3nc(-c4ccco4)c(-c4ccco4)nc3c2)CC1 the Potency was inconclusive: 23.1 µM [inhibitor, single point]. For Brc1ccc2c(c1)C(c1cccs1)=NNC(c1cccnc1)=N2, the “activity change, negative = growth inhibition” value was inactive: -10.1%. In the case of Cc1nc(CS(=O)(=O)c2ccccc2)cc(N2CCOCC2)n1, the Potency is reported as active: 9.2 µM. In the case of COc1cc(/C=N\Nc2nc(-c3cccs3)c(NC(C)=O)s2)ccc1O, the Potency is reported as inconclusive: 29.1 µM [inhibitor, single point]. For Cc1ccc(-n2ncc3c2CC(C)(C)CC3NC(=O)CCN2CCCO2)cc1 (centres undefined), the “activity change, negative = growth inhibition” value was inactive: -11.1%. For COCc1cc(C)nc2sc3c(c12)NC(c1ccccc1C(=O)O)N(c1ccc(OC)cc1)C3=O (centres undefined), the Potency was inconclusive: 29.1 µM [inhibitor, single point]. For Cc1cccc(N(C)S(=O)(=O)c2c[nH]c3ccc([N+](=O)[O-])cc23)c1, the Potency was inconclusive: 29.1 µM [inhibitor, single point]. For CC(C)(C)c1csc(NC(=O)CCS(=O)(=O)c2ccc(F)cc2)n1, the Potency was active: 8.2 µM. With CC1CC1C(=O)N(C)CC(=O)Nc1cccc(F)c1 (centres undefined) the “activity change, negative = growth inhibition” value was inactive: -10.9%. With CCc1ccc(C(=O)c2cn(CC(=O)Nc3ccc4c(c3)OCCO4)c3ccc(C)cc3c2=O)cc1 the “activity change, negative = growth inhibition” value was inactive: 1.94%. In the case of CCCCC(=O)NC(c1ccccc1Cl)c1ccc2cccnc2c1O (centres undefined), the Potency is reported as active: 8.2 µM. In the case of O=C(CCSCc1ccccc1Cl)N1CCN(c2ccc(F)cc2)CC1, the Potency is reported as inconclusive: 29.1 µM [inhibitor, single point]. With Cc1ccc(S(=O)(=O)N2CCOCC2)cc1C(=O)OCC(=O)N1CCc2ccccc2C1 the Potency was inconclusive: 25.9 µM [inhibitor, partial curve, poor fit]. For Cc1ccc(-c2cnc(C(O)c3ccc(Cl)cc3C)[nH]2)cc1 (centres undefined), the Potency was active: 23.1 µM. In the case of CCC(C)Sc1ccc(-c2nc3ccccn3c2NCc2ccccc2)cc1OC (centres undefined), the Potency is reported as inconclusive: 18.4 µM [inhibitor, single point]. With COc1ccc(F)cc1-c1cc(C(=O)Nc2ccc(C)c(NS(C)(=O)=O)c2)[nH]n1 the Potency was active: 18.4 µM. In the case of COc1ccc(S(=O)(=O)N2CCCc3ccccc32)cc1OC, the Potency is reported as inconclusive: 13 µM [inhibitor, partial curve]. In the case of Oc1cc(CNCc2ccccc2)c(O)cc1CNCc1ccccc1, the Potency is reported as inconclusive: 18.4 µM [inhibitor, single point]. With O=C(c1ccc2ccccc2c1)N1CCN(c2ccc(O)cc2)CC1 the Potency was inconclusive: 16.4 µM [inhibitor, partial curve]. With COc1cc(/C=C/C(=O)OCC(=O)NC(=O)NC2CCCC2)ccc1OCC#N the Potency was inconclusive: 18.4 µM [inhibitor, single point].
